Assay results taken from the supplement of paper PMC10126150.
Sequences with one replicate were seen in a single cluster, so their values are uncertain.

System: ATP
Experiment: switch fluorescence ratio, 500 uM ATP over buffer (Cy3 cluster intensity, sum of 5 cycles each) (fold (ratio)); higher = stronger signal-on switching upon ATP binding; sequences stand for … in TCGTCGGCAGCGTCAGATGTGTATAAGAGACAGTTTTTTTTTTTTTTTTTTTTTTTTT…TC
Conditions: aptamer strand: ATP DNA aptamer (quencher-CACCTGGGGGAGTATTGCGGAGGAAGG + anchor), 100 nM annealed; ATP concentration: 500 uM; one replicate
Summary of the method: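 Five buffer/ATP imaging cycles were run on Cy3-labelled switching-strand clusters on a modified Illumina MiSeq flow-cell, with NaOH stripping and re-annealing between cycles. In each cycle, clusters annealed to 100 nM quencher-labelled ATP aptamer were imaged in selection buffer, then after 15 min with 500 uM ATP at 22 °C. Per cluster, the fluorescence ratio is summed target-cycle over summed buffer-cycle Cy3 intensity, averaged per switch-domain sequence. Only clusters within 100-1000 RFU were kept.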
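Also: ATP exposure 15 min at 22 °C before imaging.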

Sequence | switch fluorescence ratio
CAAGACAATC | 1.24
AGTGTTGTC | 0.994
GGGTGTATAG | 1.01
CTCGTCAAGG | 1.11
CGGGACTAAC | 1.08
AAGGGCAATT | 1.02
CGTTGGGCAA | 0.994
TCCGTCCACC | 1.17
AACTGGTAAG | 1.04
GGGCGTAAAC | 1.13
GCGTTGTAGA | 1.01
ATCCCGCTCT | 0.95
TTAACGAGCG | 0.977
CAGGGTCTGG | 0.972
TTTGGGTTAG | 0.963
ATCAGCGTTG | 0.991
ATTCGACTTT | 1.07
CAGATCGGAG | 1.03
TGTTACAGAT | 1.05
GAGATGGGAA | 1.01
CCCGTGGCGT | 1.07
ATAACCGCAT | 2.2
CAGGCGCCAA | 1.02

Sequence | switch fluorescence ratio
TTCGAAATAA | 1.05
TACCGGGACC | 1.07
CCTTACGCTT | 6.13
TTTGTGAGCG | 1.03
AGGAAGGGCG | 1.12
ATGTCGTTTT | 0.963
CTGCCGCTTG | 1.16
TGTGTGAGGA | 1.04
CCGTTACCGC | 2.35
GACGGGTGGA | 1.04
CAACGCCTGA | 1.03
GTGCGGACTT | 0.96
AATTATTTCA | 1
ATACGGAGT | 1.01
AGGTGGGAGA | 0.999
TTATAAGTAC | 1.42
CATTGTTGCT | 1.01
GCAGGGTATT | 0.963
TGAATTATGC | 0.989
ACACGCATGG | 1.23
GGTATACAAT | 1.01
GCAAGCGTAG | 1.02
CTCTGTTTAT | 1.06

Sequence | switch fluorescence ratio
TCAATCCGTG | 0.977
ATCAGGAGCA | 1.17
CCCATCTTGT | 0.977
CGGTCGCGGT | 1.01
CCATGGCATG | 1.05
ATATGAGATT | 0.999
AATCAAGCAA | 2.31
AATTGTCGCC | 0.981
CAAGAGGCCT | 1
AAGTAGGGAC | 0.963
GACTGTGGG | 0.993
TCAAGCACT | 1.28
ACCGCAAGGA | 2.94
GCATAAGTCA | 0.978
CTAGACGCGG | 0.994
AGGATGAGAG | 0.993
CGATTCGGCT | 0.967
CATGCACACG | 1.05
TCGGAAGGCC | 1.04
GGACCGCTAG | 1.03
CATCGGGCCT | 1.04
CGATAACTTG | 0.974
GAACTTACGT | 1.11

Sequence | switch fluorescence ratio
ACATCTTATT | 1.02
TCGCTCCTCT | 1.05
TTAATCGGAT | 0.986
GCCATAGGGA | 0.992
AGTATCAAAT | 1.01
CTCACCTTTA | 1.03
GGCCCAGTTT | 1.02
CGGCAGATGA | 0.986
CAGGCTTGTC | 0.989
AAACTGCTTT | 0.972
TATGCGGCG | 0.972
TCTATTGTTT | 0.992
ACGAATGCAG | 1.12
GCCTCGTTCG | 1.01
TCACCGGTA | 1.02
TTGCGTGCAT | 0.954
CATGTGGCAA | 1.53
TCTATCAAGT | 1.01
AAGGTGATGC | 1.07
ATCTTTGGA | 1.03
GAAGGAAGCG | 0.982
GACTGGAATT | 0.961
CAGACATACC | 1.37

Sequence | switch fluorescence ratio
GTAAGCTAAG | 0.995
CCGTAAGGAT | 2.12
CTGTGAACCA | 1.02
CGGGTTTATG | 0.966
ACGATGCGG | 1.07
ACAATTGTT | 1.01
AAATGAAATG | 1.02
CCGTACAAAT | 1.78
GGTAGGTCGG | 0.962
TTAGACAGGT | 1.03
CATAGTGGTT | 0.977
GTGAAATACT | 1.19
GATATCCGGG | 0.955
TCTCCTTGCT | 1.16
AATATCCCCC | 1.12
CGCGTTGCAC | 1.07
TGTTTGAGTA | 0.998
TCAGTTCCGT | 1.03
AGATCATAGC | 1.02
AATCGAAATT | 1.04
ACGGGCTTAC | 1.9
TTTGCGTCCT | 1.03
TGCTCTGTAA | 2.44

Sequence | switch fluorescence ratio
GATGCGCTAA | 0.998
AAAGACTTAT | 0.993
GTCATTATGG | 0.975
ATGCTACATC | 1.02
CGGGTGAATC | 1.04
AGACGGTTGG | 1.01
TCAATTAGAG | 0.985
GGGGTAGCAA | 1.02
TGAGCGATGT | 1.01
CGCAATCTGT | 6.53
GAAGGATTG | 1.03
ATACATAGTT | 1.04
ATCGTGTTC | 0.95
TAGTATAGCG | 0.926
CTTACGAA | 1.04
CTTGTCAGCT | 0.977
CGTATGCCAA | 0.966
TTTGACAACC | 1.02
GGTTCGGTCA | 0.981
CTGGCACTTT | 0.985
AACCTAACCG | 1.19
TAACATATGC | 1.02
ACCCCGAATT | 1.04

Sequence | switch fluorescence ratio
TTCAGGGGAA | 1.06
GAGGGGGGT | 1.01
AATGTCGGGT | 0.995
AGCCTAAAGG | 0.936
GTAGTCGAGT | 0.995
CCCGGAGGTA | 1.06
ATGGAGATGC | 1.05
TCGAAAACAT | 1.09
CGAGGTCGGC | 1.1
CTCATCATTG | 1.02
GCTAGACTCT | 1.16
AGAATGCGGA | 1.05
TCACTATCGA | 1.02
AGCCTTGGTT | 0.989
ATGATGAACA | 0.973
ATGGTTTCTG | 0.951
CCGTTTCTTC | 1.05
GTAAGGGCTT | 0.981
GGCGGGCAGT | 0.99
